# Assay results: the supplement of paper PMC11417369
# ± gives the standard deviation of the averaged measurements. This is one part of the list.
# System: PfAP2-LT AP2 domain (GST-tagged)
# Assay: gcPBM binding intensity (ln(normalized median fluorescence intensity)); higher = stronger DNA binding
# Procedure, shortened: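 GST-fused DNA-binding domains of P. falciparum, expressed in E. coli, were applied at about 25 μg on average for 1 h to an Agilent 4 × 180k array of primer-extended double-stranded 36-bp intergenic genomic probes and negative controls. Binding intensity is the highest Masliner-normalised natural-log median intensity across replicate spots of either probe orientation, measured with Alexa488 anti-GST antibody and a 488 nm scan.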
row,Sequence,gcPBM binding intensity (ln)
1,TTTTTATTATTCCATAGTACAGAAAAAATGATATAT [XGTACX_site3431],8.31 ± 0.38
2,ATTCTTTATTATTCGCCACACACATATATATATATA [CACACA_site9009],9.45 ± 0.38
3,TGTAGTCTGGAGAAAAGTACACAGTATCTGGTAACC [XGTACX_site2033],8.8 ± 0.47
4,ATATAGAATAAAACTATACACACCTATATTTAAACA [CACACA_site1902],8.91 ± 0.4
5,ATATAAAAAAATAATAAATAAATAAAAAGATTTCTT [XGTACX_negctrl_site110],8.46 ± 0.49
6,TATATTAATAAAGGTACTACACGGAAATGGAAATAT [XGTACX_site7760],8.98 ± 0.37
7,CTTGTATAGAAACACACACACACTTTCTTTTTTTAA [CACACA_site1964],9.4 ± 0.28
8,AATTTGAAATATGTGGTGCAGTTATATAATATGTTT [GTGCAC_site9885],8.87 ± 0.41
9,ATATTTTCCCTTGTTTTACACACGTGCTGATATGAG [CACACA_site8672],9.52 ± 0.35
10,TAATAAATAAATGACACACACACACGCAAAAAAAAA [CACACA_site7275],9.94 ± 0.19
11,AACAAATACGAACACACACACACACTAAAAAAAAAA [CACACA_site6386],10.3 ± 0.2
12,ATAATATGAAAACACACACACACACCCAAAAAAAAA [CACACA_site2011],10.1 ± 0.15
13,CACATTAATTTTTGGGTGCACTTGGGAAATTTTGGT,8.75 ± 0.33
14,ATATATATTATATATATATATATATATATATATATA [CACACA_negctrl_site493],9.32 ± 0.23
15,AGGATATAATACCATACACACATTTATAAAATAACA [CACACA_site1930],9.09 ± 0.47
16,TGTAATCAAAAAAATAGTACATAAATTGTGTATACT [XGTACX_site5908],8.71 ± 0.44
17,CATACATAGATATATACACACATACCTATAAATACA [CACACA_site6513],9.31 ± 0.27
18,TATATATGTGTTATATACCCTTTTTTATATATTAAT [XGTACX_negctrl_site313],8.78 ± 0.45
19,TAAAAATCCACAAGCACACAAATGTACATATATATA [CACACA_site2462],9.04 ± 0.39
20,TACGTCTTTTTTTTGGTGCATAATTTTTTTGTACAA,8.78 ± 0.42
21,TACACGTTCTACATTTGTACTTAATTTATACATAAG [XGTACX_site1579],8.94 ± 0.45
22,AATTTTGTTAAAAGGACACACAATTCAATATATTAA [CACACA_site647],8.69 ± 0.45
23,ATTACATGATATATCACACACACATATAGATATATA [CACACA_site7352],9.5 ± 0.31

row,Sequence,gcPBM binding intensity (ln)
1,GCTATTAATTTATAAGCACACAATATAAATATATAT [CACACA_site2251],8.71 ± 0.35
2,TATGTCGACATTTAAAGTACAAAAAAAAAAAAAAAA [XGTACX_site8985],8.44 ± 0.53
3,TATATTAAAATATTCACACACTAACGTAAATCATTG [CACACA_site5520],8.79 ± 0.45
4,ATTTATTTAAACAAATCACACACAAATATATATACA [CACACA_site8622],9.04 ± 0.35
5,AGAAAAGAGAAAAGTAGTACAAAGGATCATTTAAAA [XGTACX_site5294],8.82 ± 0.52
6,TTAAGTCCGTTAACAGTGCATTTTTTCTTTTATGTA [GTGCAC_site9867],8.79 ± 0.33
7,TAATGAAAAAATAAAAGAATAAATAAATAAATAAAT [TGCATGCA_negctrl_site130],8.69 ± 0.46
8,ATTAAAAAAATATAAACACACAAAAAAAAAATATAC [CACACA_site1100],9.11 ± 0.56
9,TATAAAAAGCATAACACACACATGTCAATATATATA [CACACA_site1111],9.31 ± 0.35
10,AAAAAAAAAATATGTACACACATATATAATACATAA [CACACA_site1639],9.05 ± 0.38
11,ATAGAACAGAAAAGGCGTACAATAATATGTAAACAA [XGTACX_site2828],9.16 ± 0.5
12,TATAAATTTAAAATGACACACACTAAAATTATTTAA [CACACA_site1239],8.87 ± 0.44
13,GTATTATTATTATGCACACAAAAATATTTATACATA [CACACA_site3656],8.95 ± 0.35
14,TATATATATATATATATATATATATATATATGTATA [TGCATGCA_negctrl_site17],9.8 ± 0.38
15,CATATGTCTTGAGATCGTACGTTATTTTTTTTATTT [XGTACX_site1381],8.97 ± 0.38
16,AAGAATATTAATATAAATAAGTAAATAAATAAATAA [CACACA_negctrl_site417],8.74 ± 0.47
17,AAAAATTATATATATATATATATATATATATGTATA [GTGCAC_negctrl_site488],9.23 ± 0.21
18,TGGTAAATTTACCGTTGTACATTCATTTATAACATT [XGTACX_site8910],8.79 ± 0.39
19,ATATATGTATTTAATACACACAAAACTTTCATTCCA [CACACA_site3531],9.04 ± 0.35
20,ATATTCATTAACCACACACACAAAAAAAATAAAATT [CACACA_site3801],9.59 ± 0.26
21,ATACATATATGCTTCTGTACACATAATTTATAAAAA [XGTACX_site7000],8.59 ± 0.33
22,TTTTTAGAAAGACATGCATGTAATAAAAATAAATAA [TGCATGCA_site685],9.09 ± 0.54
23,CTATTTCAATTTAGTGCACACATTTTAATTTATAAG [CACACA_site2040],8.81 ± 0.45

row,Sequence,gcPBM binding intensity (ln)
1,ACATACACATATACATGTACATATATATATATATAT [XGTACX_site5082],9.68 ± 0.3
2,ATTAAAACAAAATGTACACACATATCATTTAATGAC [CACACA_site6543],9.06 ± 0.38
3,TATGAAAAGATATATACACACATAATAAAGGTATAT [CACACA_site7713],9.17 ± 0.44
4,CATTATTATTAACATACACACGTGTTAAATACACCC [CACACA_site6118],9.1 ± 0.49
5,TTTTAATCTTAATTATGTACATATAAAATGTGTATA [XGTACX_site7382],8.58 ± 0.4
6,TCTATACCTATTCTTACACACATATGTATATATATA [CACACA_site563],9.22 ± 0.34
7,TTTTTTTTTTTTGAAACATGCATTGTTTTATTCTTA [TGCATGCA_site15],8.61 ± 0.45
8,AAAAAAAGATTATACACACACATATATAAACCTACA [CACACA_site710],9.46 ± 0.28
9,TTTTTTTTTTTTTGTTGTACAATACTTAATCATTAT [XGTACX_site3422],8.66 ± 0.47
10,ATATATATATAATCAAGTACACAGTAATAAAAAGAA [XGTACX_site1070],9.18 ± 0.4
11,AATAATAACTGTAGGTGTACGTAAAAAAAAAATTAT [XGTACX_site3133],8.99 ± 0.42
12,ATTGTGTTCATCAGCACACACAACATCATGCAATAA [CACACA_site6960],9.2 ± 0.31
13,TAAATGCACATATACACACACCCAATTTTAAGTTTT [CACACA_site7428],9.43 ± 0.28
14,ACATCAAGAATTATTAAGAATACGGATAGATAAAAT [GTGCAC_negctrl_site261],8.72 ± 0.46
15,TTAATTTCATTTTCTACACACCTATCCTTTTTTTTT [CACACA_site772],8.96 ± 0.48
16,ATACATATTACATGTTGTACTCCAACAAAAATGCCC [XGTACX_site3201],8.93 ± 0.4
17,AATAAAAAAAGTTTTTTTTTTTTTTAAACAATAGAC [CACACA_negctrl_site1061],8.2 ± 0.58
18,AAAAATTTAATGAAATGTACATATATGTTATTAATA [XGTACX_site6091],8.54 ± 0.43
19,AATAACCACCAACACACACACATATATATATATATA [CACACA_site3540],10.2 ± 0.24
20,ATAATAATAATAAAAAGTACATTTAATTATATAGAA [XGTACX_site7742],8.69 ± 0.56
21,AAGAATGTTAATAGTACACACAATTATTATATAAAT [CACACA_site3739],9 ± 0.45
22,TATATGTTTTAAAAGTGTACTTTAGTTTCAATTTTT [XGTACX_site4269],8.47 ± 0.59
23,TTTTGTTTTGTTTTGTTTTGTTTTGTTTTATTTTAT [GTGCAC_negctrl_site383],8.9 ± 0.43

row,Sequence,gcPBM binding intensity (ln)
1,AATGTATATATGTAATGTACATATGTAATGTATATA [XGTACX_site6509],9.1 ± 0.4
2,AATATAGATATAACCACACACATACATCTAATTCTA [CACACA_site1760],9.42 ± 0.3
3,GAAAAGAACAAGAGCATGCACTTAATAAGAATAATA,8.99 ± 0.45
4,TGTTTCTTATTTTTTTCACACACTAAACATTTCAAA [CACACA_site2218],8.93 ± 0.44
5,TTTCAAAATGTGTAAAATAAAAATAATATCATTACA [TGCATGCA_negctrl_site521],8.45 ± 0.44
6,ATGTGATATAAGTACACACACATATGTATATAGAAT [CACACA_site1823],9.79 ± 0.3
7,AAAAAAGTTGTATTTGCACACATAAAAAAAAGATAT [CACACA_site3839],9.08 ± 0.44
8,AATTTAAAAATGGACACACACAAAAAATAATACTTA [CACACA_site250],9.36 ± 0.46
9,GTATATTATATTGGGTGTACCATATATAATATAATC [XGTACX_site8579],8.7 ± 0.41
10,AAAAATTAACAAAAGGTGCAATTTATTTATTAACGG,8.62 ± 0.45
11,TTATAAATAAAAAATACACACATATATATATATATA [CACACA_site207],9.64 ± 0.2
12,AACTTGTATTTATACACACACACACTGTCTTTTTTT [CACACA_site7009],9.82 ± 0.35
13,TAAAATTTTATAAAGGAACACACATTTTTTTTTTTT [CACACA_site8740],8.52 ± 0.44
14,TATTTTAATATGTATACATGCATACCTACTCATACA [TGCATGCA_site779],8.87 ± 0.5
15,TAGACAAAATATAATGCACACTATTATTTTTATTTA [CACACA_site5508],8.66 ± 0.47
16,AAGAAAAATATATAAATAAATAAATATATAAATATA [CACACA_negctrl_site836],8.55 ± 0.58
17,ATTAATATATTATCATGTACACAAAAATAATTTTAT [XGTACX_site7257],8.61 ± 0.32
18,GGAAACAAAAAATATATACACACTAATCATAAAAAA [CACACA_site7890],9.03 ± 0.43
19,TAAAAATATATATGATTGCACTTAGGACAATATATA,8.65 ± 0.41
20,TATTCTCTCTTATGAACACACATTTTTATTTTCAAA [CACACA_site7554],8.78 ± 0.45
